Experimental data from PubChem BioAssay AID1508624 (National Center for Advancing Translational Sciences (NCATS), 2021).
The whole screen tested about 48,000 compounds, of which about 120 (0.25%) were called active. Another 4% or so got no clear call; they are omitted. Calls follow the shape of the dose curve; as a rule, active = well fitted activation curve with a large enough effect; inconclusive = small, poorly fitted or top-dose-only effect, or another doubt; inactive = no such curve, though single readings can be large or run the other way. The list shows a part of the results.

experiment: Primary qHTS for Identification of Small Molecule Activators of Huntingtin-Antisense Promoter Activity; settings: HEK293 HTT-AS promoter firefly luciferase reporter, 24 h; series mostly up to 57.5 µM; activity change, positive = activation: at the top concentration; also: nearly all actives have a fitted effect of over 55% in size
Procedure, shortened: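 HEK293 cells carrying firefly luciferase reporters were seeded at 2,500 per well in Opti-MEM and cultured for 24 h. They were then treated with compounds at up to 57.5 uM final for 24 h at 37 degrees C before Dual-Glo luminescence readout.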

Activity change, positive = activation, inactive:
Cc1ccc(C)c(N2CCN(C(=O)CS(=O)(=O)c3cccc4nsnc34)CC2)c1 -45.5%
Cc1cc(NC(=O)C(C)(C)C)cc(-c2nc3ncccc3o2)c1O 27.6%
Cc1cc(NC(=O)c2cnc3c(-c4ccccc4)c(C)nn3c2C)ccc1Br -4.85%
Cc1cccc(N2CCN(C(=O)CN3C(=O)COc4ccc(S(=O)(=O)N5CCCC5)cc43)CC2C)c1 (configuration not stated) -25.2%
CCc1c(CN2CCN(c3ccccc3F)CC2)csc1C -3.92%
CCn1c(SCC(=O)c2ccccc2)nnc1-c1cccc(Cl)c1 -10.5%
Cc1ccc(/C=C/c2onc(C)c2S(=O)(=O)N2CCC(C(=O)NCc3ccc(OC(C)C)cc3)CC2)cc1 13%
O=C(Cn1c(-c2cccs2)cc2cc(F)ccc21)NCCCN1CCN(c2ccc(F)cc2)CC1 -30.3%
COc1cccc(CNCCSc2nnnn2-c2ccccc2)c1OC -3.95%
COc1ccc(-c2c(C)c3ccc(O)c(CN4CCCC4)c3oc2=O)cc1 2.87%
CCc1ccc(NC(=O)CSc2ncc(S(=O)(=O)c3cc(C)ccc3C)c(=O)[nH]2)cc1 -1.19%
O=C(O)Cc1cn(-c2ccccc2)nc1-c1ccc(Cl)cc1 -12.1%
COc1ccc(CC(=O)NC2CC(=O)N(c3ccc(C)c(C)c3)C2)cc1OC (configuration not stated) -18.3%
O=C(Cn1c(=O)oc2cc(S(=O)(=O)N3CCCCC3)ccc21)NCc1ccc(F)cc1 -48.8%
Cc1ccc(CNC(=O)CN2C(=O)C3(SCC(=O)N3c3ccc(F)c(F)c3)c3ccccc32)cc1 (configuration not stated) 9.11%
COc1ccc(-c2nc(Cn3c(SCc4ccccc4F)nc4cccnc43)c(C)o2)cc1 -27.4%
COC(=O)c1c(NC(=O)c2ccc(S(=O)(=O)N(C)C3CCCCC3)cc2)sc2c1CCN(C)C2 -16.7%
O=NN(CCCl)C(=O)NC1CCCCC1
CCOC(=O)C(Cc1ccccc1)NC(=O)CCc1c(C)nc2c(c(C)nn2-c2ccc(C)c(C)c2)c1C (configuration not stated) -7.69%
COC(=O)c1ccccc1NC(=O)C1CCCN(c2nnc(C)c3c(C)n(-c4ccccc4)nc23)C1 (configuration not stated) -0.307%
O=C(CN1C(=O)CCc2cc(S(=O)(=O)N3CCCCC3)ccc21)NCc1ccc(Cl)cc1 -10.5%
COc1ccc(C2C=C(c3ccc(Br)cc3)Nc3nnnn32)c(OC)c1 (configuration not stated) -24.9%
COc1ccc(Nc2cc(C(=O)NC3CCCC3)c3ccccc3n2)cc1 -15.3%
COc1ccccc1CNc1nc2c(S(=O)(=O)c3ccccc3)nnn2c2ccc(Cl)cc12 17.5%
Cc1ccc(NC(=O)c2c(NC(=O)c3ccccc3Cl)sc3c2CCC3)cc1 -4.79%
O=C(CSc1nccn1Cc1ccc(F)cc1)NCc1ccc(F)cc1 -21.1%
CN1CCN(C(=O)Cn2ncc3c4ccccc4n(Cc4ccc(Cl)cc4)c3c2=O)CC1 -12.5%
Cc1cc(C)c(NC(=O)c2c(C)nn(-c3ccc(F)cc3)c2-n2cccc2)c(C)c1 -33.4%
CS(=O)(=O)N1CCc2cc(C(=O)N3CCN(c4ccccc4F)CC3)ccc21 -1.43%
Cc1ccccc1NC(=O)Cn1nnc(C(=O)NCCc2ccccc2)c1N -5.58%
O=C1Cc2cc(Cl)ccc2N1 -3.08%
O=C(NC1CCCCC1)c1ccc(CSc2nc3ccncc3n2Cc2ccc(F)cc2)cc1 -24.2%
CCc1nn2c(=O)c(S(=O)(=O)Nc3ccc(Br)cc3F)c(C)nc2s1 -24.6%
CC(=O)c1cccc(NC(=O)Cn2nc(C(F)(F)F)c3c2CCC3)c1 -17%
NC(=O)c1nn2c(C(F)(F)F)cc(-c3ccc(Br)cc3)nc2c1Cl -28.8%
CSc1nc(=O)c2c(n1C)NC(=O)CC2c1cc(F)cc(F)c1 (configuration not stated) -10.7%
Cc1ccc2nc(Cl)c3cc(C(=O)NCCCN(C)Cc4ccccc4)sc3c2c1 -12.7%
COc1ccc(-c2cc(C(F)(F)F)n3nc(C(=O)Nc4cc(C)ccc4C)cc3n2)cc1 8.75% [at 11.5 µM, percent change from vehicle, -100% = no light]
Cc1ccc2c(c1)c1c3n2CCN(C(=O)c2ccc(C(F)(F)F)cc2)C3CCC1 (configuration not stated) -20.7%
CC1=C(C(=O)OCc2ccc(C)cc2)C(c2cccc(F)c2F)CC(=O)N1 (configuration not stated) -46%
CCOC(=O)c1sc2ccccc2c1S(=O)(=O)N1CCN(c2cc(C)ccc2C)CC1 -29.3%
COc1ccc(CCNC(=O)c2cc3c(=O)oc4ccc(C)cc4c3s2)cc1OC -4.45%
CCNC(=O)c1cc2n(n1)CCCN(Cc1ccc(C)cc1)C2=O 4.59%
COc1ccc(OCC(=O)Nc2ccc3nn(-c4ccc(OC)cc4)nc3c2)cc1 -36.4%
Cc1nn(C(=O)c2cccc(F)c2)c(C)c1S(=O)(=O)N1CCOCC1 -11.7%
CCc1ccc(S(=O)(=O)NCc2nc3cccnc3n2Cc2cccc(OC)c2)cc1 -22%
CCCCCn1c(CNC(=O)c2ccccc2)nc2ccccc21 -11.9%
CCOc1ccc(NC(=O)Cn2c(=O)n(CCCCC(=O)NCc3ccc4c(c3)OCO4)c(=O)c3ccccc32)cc1 -55.6%
CCN(CC)c1ccc(-n2nc3cc(C)c(NC(=O)c4ccccc4C)cc3n2)c(C)c1 -25.9%
Cc1ccccc1Cn1c(=O)n(CC2CCC(C(=O)N3CCOCC3)CC2)c(=O)c2sccc21 (configuration not stated) -18.2%
Cc1cc(C)c(S(=O)(=O)N2CCN(Cc3ccc4c(c3)OCO4)CC2)cc1C -17.6%
Cc1c(Cl)cccc1Nc1nn2c(=O)c3ccc(C(=O)NCCC4=CCCCC4)cc3nc2s1 -15.1%
COc1ccc(S(=O)(=O)c2nnn(-c3ccc(C(C)C)cc3)c2C)cc1 -43.8%
CCOC(=O)C1=C[C@]2(CC)CCCN3CCc4c(n1c1ccccc41)[C@@H]32
Cc1ccc(C)c(N(C)C(=O)Cc2c(C(=O)O)[nH]c3ccc(Cl)cc23)c1 -25.1%
CC(C)(C)CC(C)(C)c1ccc(OCC(=O)Nc2ccc(S(=O)(=O)Nc3ncccn3)cc2)cc1 11.5%
COc1ccc(C2C(C(=O)Nc3ccc(C)cc3C)=C(C)Nc3nc(SCc4cccc(C)c4)nn32)c(OC)c1 (configuration not stated) -0.642%
COc1ccccc1-c1nn2c(=O)cc(CN3CCN(C(=O)/C=C/c4ccccc4)CC3)nc2s1 -7.45%
COc1ccc(N2CCN(S(=O)(=O)c3ccc(-c4cnc(C5CC5)o4)cc3)CC2)cc1 -6.23%
COc1cccc(CNC(=O)CN2C(=O)N(c3cccc(Cl)c3)S(=O)(=O)c3ccccc32)c1OC -32.3%
CC1=C(C(=O)Nc2ccc(C)cc2C)C(c2ccc(Br)cc2)n2ncc(C(=O)Nc3cccc(C)c3)c2N1 (configuration not stated) -8.51%
COc1ccccc1CNC(=O)CSc1nc(=O)[nH]c2c1CCC2 -4.26%
O=C(c1ccc2c(c1)N(Cc1cccc(Cl)c1)C(=O)c1ccccc1S2=O)N1CCN(c2cccc(C(F)(F)F)c2)CC1 (configuration not stated) -26.4%
Cc1ccc(N(C)C(=O)CN2C(=O)CCc3cc(S(=O)(=O)N4CCOCC4)ccc32)cc1 -11%
COc1ccccc1CNC(=O)CCn1cnc2ccccc2c1=O 4.2% [at 11.5 µM, percent change from vehicle, -100% = no light]
O=C(NC1CC(=O)N(c2ccc(F)cc2)C1)c1ccc2c(c1)OCO2 (configuration not stated) -15.1%
CCN1CCN(C(c2ccccc2Cl)c2c(O)cc(C)n(Cc3ccco3)c2=O)CC1 (configuration not stated) -6.4%
Cn1c(=O)c2c(ncn2Cc2ccc(Cl)cc2)n(C)c1=O -25.7%
O=C(Cn1c(=O)n2nc(-c3cccc(F)c3)nc2c2ccccc21)N1CCN(c2ccc(F)cc2)CC1 -0.146%
Cc1cccc(Cn2nnc3c(=O)[nH]c(C4CCCN(C(=O)c5ccccc5Cl)C4)nc32)c1 (configuration not stated) -16.4%
Cc1cccc(N2CCN(C(=O)c3noc4c3CCCCC4)CC2)c1C -6.99%
COc1ccccc1NC(=O)c1cn(-c2ccccc2)nc1-c1ccccc1 -23.7%
Cc1cc(C(=O)C(=O)Nc2nncs2)c(C)n1-c1ccc(Cl)cc1 4.76%
CCc1ccc(NC(=O)Cn2c(=O)n(-c3cc(OC)c(OC)c(OC)c3)c(=O)c3ccccc32)cc1 -14.2%
CC(NC(=O)c1ccc(F)cc1)c1nc2ccccc2[nH]1 (configuration not stated) -10.6%
COc1ccc(N2CCN(C(=O)CNS(=O)(=O)c3ccc(Br)s3)CC2)cc1 -29.7%
N#Cc1nc(/C=C/c2ccc(F)cc2)oc1NCc1ccc(F)cc1 4.81%
Cc1ccc(-n2c(=O)c3c(C)c(C)sc3n(Cc3ccc(F)cc3Cl)c2=O)cc1C 7.5%
COc1ccc(CCNC(=O)Cc2c(C)c3cc4c(C)coc4cc3oc2=O)cc1OC -5.02%
Oc1ccc(-c2nc3ccc(Cl)cn3c2Nc2ccc3c(c2)OCO3)cc1 0.0967%
COc1cc(C(=O)NCc2nc3cccnc3n2Cc2ccc(C)cc2)cc(OC)c1OC -5.89%
CC(=O)c1ccc(NC(=O)Cn2ncc3c4ccccc4n(Cc4ccccc4)c3c2=O)cc1 -16.8%
COc1ccc(N(C(=O)c2ccccc2)S(=O)(=O)c2ccc3c(c2)n(C)c(=O)n3C)cc1 -9.09%
O=C(NCc1ccc(Cl)cc1)C1CCN(S(=O)(=O)c2ccccc2)CC1 -16.5%
O=C1CC(=O)Nc2cc(S(=O)(=O)N3CCOc4ccc(Cl)cc43)ccc2N1 -12.4%
CCc1ccc(S(=O)(=O)c2cn(CC)c3cc(N4CCCCC4)c(F)cc3c2=O)cc1 -8.62%
COc1ccc2nc(NC(=O)c3cc(=O)c4cc(C)cc(C)c4o3)sc2c1 7.83%
COc1ccc2c(CNCCc3cccs3)c(C(=O)O)n(Cc3cccc(F)c3)c2c1 -27.9%
COc1cc(OC)c(NC(=O)C2CCN(S(=O)(=O)c3ccc4c(c3)oc(=O)n4C)CC2)cc1Cl -18.6%
Cc1ccc(CNC(=O)CN2CCN(Cc3ccc(F)cc3Cl)C2=O)cc1 0.594%
Nc1c(C(=O)NCc2ccc(Cl)cc2)sc2nc(-c3ccc(F)cc3)ccc12 -9.59%
CCc1ccc(Nc2sc(C(=O)c3ccc(F)cc3)c(N)c2S(=O)(=O)c2ccccc2)cc1 -18.3%
